For the assay, the target named is T1, CTLA-4-Fc (recombinant bivalent CTLA-4 fused to the human IgG1 Fc) (human, UniProt P16410 36-161, Homodimer through the IgG1 Fc (bivalent); the Fc is left out of the letters.).
T1 construct: also called dimeric CTLA-4-Fc; CTLA-4 (in the SEC legends); not shown: human IgG1 Fc and any linker of the CTLA-4-Fc fusion
Put plainly: analytical size-exclusion chromatography of the mixture, relative absorbance at 230 nm. As to the method:
The masked mLcn2 was characterized in vitro by size exclusion chromatography and SPR analysis (FIG. 3 C/D). Admixtures of the masked mLcn2 and a recombinant bivalent CTLA-4 (also fused to the human IgG1 Fc) were incubated and applied to an analytical column. In the absence of MMP9, the combination eluted at the same position as the individual components. However, incubation with MMP9 led to an earlier elution, indicating the formation of a heterodimeric complex. […] Similar results were obtained using SPR (FIG. 3C). In these studies, monomeric CTLA-4 was chemically tethered to the chip and the masked mLcn2, MMP-cleaved masked mLcn2 and the n-mLcn2 (no N-terminal fusion) was passed over the chip.
Background: In gel filtration, larger molecules generally elute earlier.

T1 sequence (P16410 36-161 limits assumed): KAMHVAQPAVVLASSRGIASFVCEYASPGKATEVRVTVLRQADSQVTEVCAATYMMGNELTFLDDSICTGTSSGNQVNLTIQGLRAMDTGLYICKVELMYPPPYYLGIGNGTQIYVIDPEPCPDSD

B1: Mxx9 mLcn2-Fc (Pep16-Mxx9-mLCN2-IgG1, inactive MMP9 cleavage site) (Fc fusion)
chain: AGSCWSPLPFMCGGSVPGSGSSGSQDSTSDLIPAPPLSKVPLQQNFQDNQFHGKWYVVGLAGNRILRDDQHPMNMYATIYELKEDKSYNVTSVISSHKKCEYTIATFVPGSQPGEFTLGNIKSYGDKTSYLVRVVSTDYNQYAVVFFKLAEDNAEFFAITIYGRTKELASELKENFIRFSKSLGLPENHIVFPVPIDQCIDGSRSGGTSGGGSVPGSGSSGSTSGSGKSSEGSGQ[human IgG1 Fc and a few adjoining residues cut from this listing]
notes: also called MMP9-mutated masked mLcn2 control; masked mLcn2 with non-cleavable linker
As to B1, the binding result is on record as “no binding”.

The values above are taken from patent US20210122795A1 (CITY OF HOPE, published 2021).
